Assay results from PubChem BioAssay AID1745845 (National Center for Advancing Translational Sciences (NCATS), 2022).
Screen size: about 360,000 compounds; about 2,600 (0.72%) were called active. The shares of active, inactive and inconclusive entries below differ from those in the screen. Calls come from the whole dose curve; as a rule, active = well fitted inhibition curve with a large enough effect; inconclusive = small, poorly fitted or top-dose-only effect; inactive = no such curve, though single readings can be large or run the other way. Potencies of inconclusive entries are doubtful fits and often do not repeat.
Potency is the fitted concentration of half-maximal effect; tags give direction and shape of the fitted curve.

Experiment: Primary qHTS for Inhibitors of ATXN expression; note: nearly all actives have a fitted effect of over 55% in size
Conditions: HEK-293 ATXN2-luciferase reporter, luminescence, 24 h; series mostly up to 57 µM
Summary of the method: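 ATXN2-luciferase reporter cells (luciferase flanked by upstream and downstream ATXN2 gene portions) were treated 24 h at 37 °C with compounds at up to 57 uM. SteadyGlo luminescence gave expression; GF-AFC fluorescence gave viability.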
In the case of CCc1nc2ccccc2n1CCCCOc1ccc(Cl)cc1, the Potency is reported as inconclusive: 39.8 µM [inhibitor, single point].
With Oc1ccccc1/C=N/Nc1ncc(Br)cn1 the Potency was inconclusive: 31.6 µM [inhibitor, partial curve, poor fit].
For CCc1cc2c(N3CCN(c4nnc(CC)s4)CC3)ncnc2s1, the Potency was inconclusive: 25.1 µM [inhibitor, single point].
In the case of CCC(=O)NC(C)c1cc(Cl)c2cccnc2c1O (stereo not drawn), the Potency is reported as active: 8.91 µM.
With O=C(NNc1ccccc1Br)C(O)(c1cccc(C(F)(F)F)c1)c1cccc(C(F)(F)F)c1 the Potency was inconclusive: 25.1 µM [inhibitor, single point].
With COc1ccc(NC(=O)/C(Cl)=C(/Cl)S(=O)Cc2ccccc2Cl)cn1 (stereo not drawn) the Potency was active: 0.844 µM.
For CC1Cc2ccccc2N1C(=O)CSc1nnc(Cc2ccccc2)n1CCc1ccccc1 (stereo not drawn), the Potency was inconclusive: 22.4 µM [inhibitor, single point].
For Cc1cc2nc(-c3nnnn3Cc3ccccc3)c(=O)[nH]c2cc1C, the Potency was inconclusive: 0.562 µM [inhibitor, full curve, poor fit].
For O=C(COc1ccc(C(=O)c2ccc(F)cc2)cc1)Nc1cccc(S(=O)(=O)N2CCOCC2)c1, the Potency was “inactive”.
For COC(=O)CSCc1nc(-c2ccc(C(=O)OC)cc2)oc1C, the Potency was active: 4.47 µM.
With COc1ccc(N2CCN(C(=O)c3cn(C4CCCCC4)c(=O)c4c3c3ccccc3n4C)CC2)cc1 the Potency was “inactive”.
For CCO[C@@H]1OC(C(=O)N2CCN(Cc3ccc4c(c3)OCO4)CC2)=C[C@H](c2ccc(Br)cc2)[C@H]1CCCO, the Potency was inconclusive: 39.8 µM [inhibitor, single point].
With COC(=O)c1cc(OC)c(OC)c(OC)c1NC(=O)c1cc(=O)n(C)c(=O)n1C the Potency was “inactive”.
In the case of O=C(CCNC(=O)C1CCN(S(=O)(=O)c2ccccc2)CC1)Nc1cccc(C(F)(F)F)c1, the Potency is reported as inconclusive: 0.631 µM [inhibitor, full curve, poor fit].
In the case of COc1cc(/C=N/OCC(=O)NC2CCCCC2C)ccc1OCc1ccc(Cl)cc1 (stereo not drawn), the Potency is reported as “inactive”.
With CCCCCCN1C[C@H](O)[C@@H](n2cc(-c3ccc(F)cc3)nn2)C[C@@H]1c1ccc(C)cc1 the Potency was “inactive”.
With COc1ccc(-c2cc(C(=O)Nc3ccc(S(=O)(=O)Nc4ncccn4)cc3)c3ccccc3n2)cc1 the Potency was “inactive”.
In the case of Cc1ccc2c(CN3CCN(Cc4ccc5c(c4)OCO5)CC3)cc(=O)oc2c1C, the Potency is reported as “inactive”.
For Cc1cc(C)nc(/N=C(\N)Nc2ccc(OCc3ccccc3)cc2)n1, the Potency was inconclusive: 12.6 µM [inhibitor, partial curve, poor fit].
For Cc1cc(N/N=C/c2ccc([N+](=O)[O-])o2)nc2ccccc12, the Potency was inconclusive: 10.6 µM [inhibitor, partial curve, poor fit].
For Cc1ccc(C)c(NC(=O)N2CCN(c3nnc(C)c4c(C)n(-c5ccccc5)nc34)CC2)c1, the Potency was inconclusive: 3.55 µM [inhibitor, partial curve, poor fit].
With Clc1ccccc1CNc1nc2ccccc2c2nc(-c3ccccc3)nn12 the Potency was “inactive”.
With COc1ccc(-n2sc3ccccc3c2=O)cc1 the Potency was inconclusive: 35.5 µM [inhibitor, single point].
With COc1ccc(Br)cc1C(=O)Nc1cccc(-c2nnc(-c3ccco3)o2)c1 the Potency was inconclusive: 25.1 µM [inhibitor, single point].
For CCc1ccc(S(=O)(=O)ON2C(=O)c3ccccc3C2=O)cc1, the Potency was active: 29.9 µM.
In the case of O=C1c2[nH]nc(-c3ccccc3O)c2C(c2cccc(Br)c2)N1Cc1ccncc1 (stereo not drawn), the Potency is reported as inconclusive: 14.1 µM [inhibitor, partial curve, poor fit].
For COc1ccc(CCn2c(C)cc(C(=O)CSc3nnnn3-c3ccccc3)c2C)cc1OC, the Potency was inconclusive: 12.6 µM [inhibitor, partial curve].
With Cc1cc(C)c(O)c(CN(C)Cc2cc(Cl)cc(Cl)c2O)c1 the Potency was inconclusive: 28.2 µM [inhibitor, single point].
With COc1ccc(-n2c(Cc3ccccc3)nnc2SCc2nc(-c3ccccc3C)no2)cc1 the Potency was inconclusive: 28.2 µM [inhibitor, single point].
With Cc1ccc(-c2n[nH]c(=S)n2/N=C/c2ccncc2)cc1 the Potency was “inactive”.
With O=C(Nc1ccccc1O)c1ccc2c(c1)C(=O)N(N1C(=O)c3ccccc3C1=O)C2=O the Potency was inconclusive: 25.1 µM [inhibitor, partial curve, poor fit].
For COc1cccc(C(=O)COc2cccc(NC(=O)c3cccc([N+](=O)[O-])c3)c2)c1, the Potency was inconclusive: 37.7 µM [inhibitor, single point].
For O=C(COC(=O)COc1ccc(Br)cc1)NCc1ccccc1, the Potency was “inactive”.
In the case of O=C1N/C(=N/N=C/c2ccccc2O)SC1Cc1ccc(F)cc1 (stereo not drawn), the Potency is reported as active: 8.91 µM.
In the case of O=C(Nc1ccccc1N1CCOCC1)c1ccc([N+](=O)[O-])s1, the Potency is reported as inconclusive: 28.2 µM [inhibitor, partial curve, poor fit].
In the case of NC(=O)[C@H]1CC2(CC(c3cccc(NC(=O)COc4ccc(Cl)cc4)c3)=NO2)CN1C(=O)c1ccc(Cl)cc1 (stereo partly drawn), the Potency is reported as inconclusive: 35.5 µM [inhibitor, partial curve].
With Cc1cc(C)c2ccc(N)nc2c1O the Potency was inconclusive: 28.2 µM [inhibitor, single point].
In the case of CCN(CC)CC(C)CNC(=O)CC(C(=O)N1CCc2ccccc21)n1ccnc1 (stereo not drawn), the Potency is reported as “inactive”.
For CCC(C)c1ccc(NC(=S)NCCn2cc(Br)cn2)cc1 (stereo not drawn), the Potency was “inactive”.
With CC1(C(=O)Nc2ccccc2F)CCN1C(=O)Cc1ccc(-c2ccccc2)cc1 (stereo not drawn) the Potency was inconclusive: 28.2 µM [inhibitor, partial curve, poor fit].
For CC(=O)c1ccc(OCCCC(=O)Nc2ccc(C)c(S(=O)(=O)N3CCCCC3)c2)cc1, the Potency was inconclusive: 20 µM [inhibitor, partial curve].
With c1ccc(-c2cnc(-c3ccccn3)nn2)cc1 the Potency was inconclusive: 39.8 µM [inhibitor, single point].
For Cc1cccc(S(=O)(=O)Nc2ccc(-c3ccc4nncn4n3)cc2)c1, the Potency was “inactive”.
